Data published in patent US4086345A, “Product and method for combatting swine dysentery” (Istituto Chemioterapico Italiano, priority 1977, dated 1978).

How the values were obtained:
swine dysentery = assay: Swine dysentery, feeding in swine rations; details: for Symptoms of swine dysentery, prophylaxis: 200 g/ton in swine rations, area with previous outbreak; for Symptoms and spread of swine dysentery, treatment of diseased herd: 400 g/ton in swine rations
[1] = system: five strains of Vibrio cholerae; assay: Effect on five strains of Vibrio cholerae; details: 10 μg/ml, after 48 hours
[2] = Toxicity (summary in words); details: same manner as described for CO-1 in Example 1

| Structure (SMILES) | Symptoms of swine dysentery, prophylaxis (swine dysentery) | Symptoms and spread of swine dysentery, treatment of diseased herd (swine dysentery) | Growth of the five Vibrio cholerae strains [1] | Toxicity relative to CO-1 [2] |
| --- | --- | --- | --- | --- |
| Nc1nccc(C=Cc2c[n+]([O-])c3ccccc3[n+]2[O-])n1 [CO-1, 2-[2-(2-amino-4-pyrimidinyl)ethenyl]-quinoxaline 1,4-dioxide] | The members of the herd remain free from symptoms during the duration of their stay | The spread of the disease is halted and the diseased members become free from symptoms | – | – |
| Cc1cc(C=Cc2c[n+]([O-])c3ccccc3[n+]2[O-])nc(N)n1 [CO-2, 2-[2-(2-amino-6-methyl-4-pyrimidinyl)ethenyl]-quinoxaline 1,4-dioxide] | The members of the herd remain free from symptoms during the duration of their stay | The spread of the disease is halted and the diseased members become free from symptoms | no growth after 48 hours of 3 of the organisms | Comparable results are obtained |
